The record followed here is PMC4336329 (PLoS ONE, 2015).

About 2,200 (0.71%) of roughly 310,000 compounds showed an effect of 50% or more. Effects have a minus sign here. Some of the results follow.

For this test, the target named is human ether-à-go-go-related gene (hERG) potassium channel (human, UniProt Q12809). Kind of test: primary screen, population patch clamp on CHO cells stably expressing hERG.
Sequence of human ether-à-go-go-related gene (hERG) potassium channel (Q12809 whole entry, looked up): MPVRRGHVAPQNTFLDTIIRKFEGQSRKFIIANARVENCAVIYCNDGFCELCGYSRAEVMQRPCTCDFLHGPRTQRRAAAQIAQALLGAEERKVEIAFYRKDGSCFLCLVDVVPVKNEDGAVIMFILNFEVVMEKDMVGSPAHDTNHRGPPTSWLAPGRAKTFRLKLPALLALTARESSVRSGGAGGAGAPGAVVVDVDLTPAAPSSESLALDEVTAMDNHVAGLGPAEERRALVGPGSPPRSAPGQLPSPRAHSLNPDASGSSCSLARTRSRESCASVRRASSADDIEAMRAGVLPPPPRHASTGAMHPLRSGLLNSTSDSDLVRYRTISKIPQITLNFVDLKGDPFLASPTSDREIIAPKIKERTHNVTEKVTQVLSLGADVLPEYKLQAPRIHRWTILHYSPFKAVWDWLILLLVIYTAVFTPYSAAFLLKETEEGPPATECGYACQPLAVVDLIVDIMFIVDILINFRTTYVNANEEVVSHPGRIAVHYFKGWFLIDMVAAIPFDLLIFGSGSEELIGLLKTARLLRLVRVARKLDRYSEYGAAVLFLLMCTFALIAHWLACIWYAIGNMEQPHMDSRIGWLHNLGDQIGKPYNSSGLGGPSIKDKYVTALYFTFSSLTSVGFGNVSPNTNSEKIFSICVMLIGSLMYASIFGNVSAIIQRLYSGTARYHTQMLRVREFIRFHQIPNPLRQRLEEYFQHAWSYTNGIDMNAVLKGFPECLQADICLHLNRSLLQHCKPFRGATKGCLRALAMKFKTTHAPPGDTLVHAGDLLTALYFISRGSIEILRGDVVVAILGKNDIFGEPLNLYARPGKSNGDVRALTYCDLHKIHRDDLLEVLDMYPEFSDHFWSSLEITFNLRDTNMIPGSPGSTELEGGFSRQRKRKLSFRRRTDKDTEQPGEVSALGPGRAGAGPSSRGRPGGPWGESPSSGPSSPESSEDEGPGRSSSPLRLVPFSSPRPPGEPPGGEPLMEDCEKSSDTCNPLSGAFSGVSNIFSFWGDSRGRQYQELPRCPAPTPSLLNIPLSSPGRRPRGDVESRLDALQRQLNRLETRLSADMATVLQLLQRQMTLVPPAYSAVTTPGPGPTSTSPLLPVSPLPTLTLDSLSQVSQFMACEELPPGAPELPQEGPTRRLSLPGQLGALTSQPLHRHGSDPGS
As for `CCCc1cc(=O)[nH]c(SCc2ccccc2Cl)n1`, the “hERG current change (%, negative = inhibition) at 1uM” value is -1.94%.
On to `COc1cc(/C=C/C(=O)OCC(=O)Nc2ccc(C)c(S(=O)(=O)N3CCCCC3)c2)ccc1O`, for which the “hERG current change (%, negative = inhibition) at 1uM” value was determined as 1.95%.
As for `COc1ccc(N(CC(=O)NCc2ccccc2)C(=O)Cn2nnc(-c3ccccc3F)n2)cc1OC`, the “hERG current change (%, negative = inhibition) at 1uM” value is -1.32%.
Turning to `CCSc1nnc(NC(=O)Cc2ccc(OC)c(S(=O)(=O)N3CCOCC3)c2)s1`, the “hERG current change (%, negative = inhibition) at 1uM” value was 10.8%.
As for `O=C(c1ccccc1F)c1cn(CC(=O)N2CCCC2)c2ccccc12`, the “hERG current change (%, negative = inhibition) at 1uM” value was found to be 6.87%.
For `CCOc1ccc(NC(=O)c2ccccc2O)cc1` the value was 3.49%.
`CCOc1ccc(N2C(=O)CC(NCCc3c[nH]c4ccccc34)C2=O)cc1` (centres unmarked): the “hERG current change (%, negative = inhibition) at 1uM” value was determined as 8.73%.
In the case of `O=[N+]([O-])c1cc(N=Nc2ccc3ccccc3c2)ccc1O`, the “hERG current change (%, negative = inhibition) at 1uM” value is recorded as 13.3%.
`O=C(NNC(=S)NC(=O)c1ccccc1)c1ccc(O)cc1`: the “hERG current change (%, negative = inhibition) at 1uM” value came out at 14.8%.
For the compound `O=C(O/N=C(\c1ccccc1)c1ccncc1)c1ccccc1Cl`, the “hERG current change (%, negative = inhibition) at 1uM” value was found to be 21.7%.
Take `CC(C)(C)NS(=O)(=O)c1ccc(CCC(=O)Nc2ccc3c(c2)OCCO3)cc1`: the “hERG current change (%, negative = inhibition) at 1uM” value came out at 9.63%.
On to `CC1CC(C)(C)CC2(C1)NC(=O)N(CC(=O)Nc1ccc3[nH]c(=O)[nH]c3c1)C2=O` (centres unmarked), for which the “hERG current change (%, negative = inhibition) at 1uM” value turned out to be 1.66%.
Regarding `Cn1c(=O)c(C(=O)CN2CCN(S(=O)(=O)c3ccccc3)CC2)c(N)n(Cc2ccccc2)c1=O`, the “hERG current change (%, negative = inhibition) at 1uM” value is 9.03%.
With `CCOc1ccccc1N1CCN(c2nc3ccccc3nc2C(C#N)C(=O)OC(C)C)CC1` (centres unmarked), the “hERG current change (%, negative = inhibition) at 1uM” value came out at 12.5%.
`Cc1ccc(N(Cc2cc3ccccc3[nH]c2=O)C(=O)c2ccco2)c(C)c1`: the “hERG current change (%, negative = inhibition) at 1uM” value is -2.17%.
For `Cc1ccc(C(=O)NNC(=O)c2ccncc2)cc1[N+](=O)[O-]` the value was 9.41%.
For the compound `Cc1ccc(S(=O)(=O)N2CCN(C(=O)c3ccccn3)CC2)c(C)c1`, the “hERG current change (%, negative = inhibition) at 1uM” value turned out to be 8.61%.
With `Cc1nc(N)sc1C(=O)NN`, the “hERG current change (%, negative = inhibition) at 1uM” value came out at 10.1%.
With `Cc1ccc(C)c(-c2ccc(=O)n(Cc3ccc(F)cc3Cl)n2)c1`, the “hERG current change (%, negative = inhibition) at 1uM” value worked out at 11.2%.
For `N#Cc1ccccc1/C=N/Nc1nc(-c2ccccc2)c2cc(Br)ccc2n1` the value was -10.5%; for `CSCC[C@H](N)C(=O)N1CCC(C(=O)N[C@H](C(=O)NCc2ccccc2F)C(C)C)CC1`, 3.41%.
For `O=c1c2ccccc2ncn1-c1ccc([N+](=O)[O-])c(C(F)(F)F)c1` the value was 2.09%; for `Cc1oc(-c2ccc(Cl)cc2)nc1CS(=O)CC(=O)NC(C)c1ccccc1` (centres unmarked), 3.54%; for `Cn1cc(/C=C2\SC(=S)N(NC(=O)c3ccccc3Cl)C2=O)c2ccccc21`, 8.73%.
The value for `CCC(C(=O)Nc1cc(C(=O)Nc2cc(C)ccn2)ccc1Cl)c1ccccc1` (centres unmarked) was 4.19%.
Consider `COC(=O)C1=C(c2cccc(OC)c2OC)C[C@@H]2CC[C@H]1N2C(=O)N1CCCC1`, for which the “hERG current change (%, negative = inhibition) at 1uM” value came to 5.49%.
For `COC(=O)c1c(NC(=O)COC(=O)Cn2cnc3ccccc32)sc(C)c1C`, the “hERG current change (%, negative = inhibition) at 1uM” value is 1.68%.
On to `NNC(=O)c1ccc(-c2cccc([N+](=O)[O-])c2)o1`, for which the “hERG current change (%, negative = inhibition) at 1uM” value was 13.2%.
On to `Cc1nn(C)c(C)c1S(=O)(=O)N(CC(=O)NCc1cccs1)c1ccc(C(C)C)cc1`, for which the “hERG current change (%, negative = inhibition) at 1uM” value turned out to be 18.9%.
For `COc1ccccc1/C=C/C(=O)OC(C)CN1CCOCC1.Cl` (centres unmarked), the “hERG current change (%, negative = inhibition) at 1uM” value was found to be 2.8%.
`CCC1(C)Cc2ccccc2-c2nc(NCCO)[nH]c(=O)c21` (centres unmarked): the “hERG current change (%, negative = inhibition) at 1uM” value was found to be 17%.
With `CCOc1ccc(CCNC(=O)c2ccc(NC3=NC4CS(=O)(=O)CC4S3)cc2)cc1` (centres unmarked), the “hERG current change (%, negative = inhibition) at 1uM” value amounted to 6.76%.
For `Cc1ccccc1OCCOC(=O)c1nc2nccc(C)n2n1` the value was 5.54%; for `CC(C)C(=O)N1CCN(c2ccc(NC(=O)c3cccs3)cc2)CC1`, 19.7%.
For `CCOc1ccc(S(=O)(=O)N2CCOCC2)cc1NC(=O)CSCc1ccc(C)cc1`, the “hERG current change (%, negative = inhibition) at 1uM” value is on record as -20.7%.
For `COc1ccc(CCc2nnc(NS(C)(=O)=O)s2)cc1` the value was 10.2%.
In the case of `CCOC(=O)C1CCCc2c1[nH]c1c(C(N)=O)cccc21` (centres unmarked), the “hERG current change (%, negative = inhibition) at 1uM” value was -3.83%.
For the compound `COc1ccc2c(c1)cc1n2CCN=C1NN.Cl.O`, the “hERG current change (%, negative = inhibition) at 1uM” value stood at 20.9%.
On to `c1ccc2[nH]c(SCc3cscn3)nc2c1`, for which the “hERG current change (%, negative = inhibition) at 1uM” value is 8.86%.
On to `O=C(CSc1ccc(-c2cccnc2)nn1)Nc1ccc(F)cc1F`, for which the “hERG current change (%, negative = inhibition) at 1uM” value was 5.63%.
As to `Cc1ccc(S(=O)(=O)CC(=O)Nc2nnc(C(C)(C)C)s2)cc1`, the “hERG current change (%, negative = inhibition) at 1uM” value amounted to 12.8%.
Take `O=C(Cn1cc(C(F)(F)F)ccc1=O)NC(c1ccccc1)c1ccccc1`: the “hERG current change (%, negative = inhibition) at 1uM” value was determined as 1.45%.
For `CN(CC(=O)Nc1cccc(F)c1)C(=O)CCNC(=O)c1ccc(Br)cc1` the value was 2.35%.
The value for `CCOC(=O)C1=C(O)/C(=C/c2ccc(CNC(=O)C(=O)Nc3ccc(C)cc3)o2)N=C1C` was 12.9%.
